Experimental data taken from publication PMC10112131, “Pharmacological Elevation of Cellular Dihydrosphingomyelin Provides a Novel Antiviral Strategy against West Nile Virus Infection” (Antimicrobial Agents and Chemotherapy, 2023).

Biological target: T1, ceramide desaturase (Des1) (Homo sapiens, UniProt O15121)
T1 sequence (O15121 1-323): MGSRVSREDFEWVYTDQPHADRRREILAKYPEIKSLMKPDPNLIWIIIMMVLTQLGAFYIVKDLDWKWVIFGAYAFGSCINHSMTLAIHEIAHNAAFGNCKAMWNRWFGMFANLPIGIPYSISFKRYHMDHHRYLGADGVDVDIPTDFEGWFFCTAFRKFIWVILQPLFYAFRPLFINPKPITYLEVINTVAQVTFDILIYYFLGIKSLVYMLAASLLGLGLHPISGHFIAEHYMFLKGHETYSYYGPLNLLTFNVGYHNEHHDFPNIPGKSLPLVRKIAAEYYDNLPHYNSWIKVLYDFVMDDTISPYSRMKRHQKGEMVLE
Assay: Des1 activity in intact T98G cell cultures (dhCerC6NBD conversion)
Details: 10 μM

| SMILES | Conversion of dhCerC6NBD to CerC6NBD (Des1 activity) |
| --- | --- |
| O=C(NCCCCCCCCCCCCNC(=O)c1cc(O)c(O)c(O)c1)c1cc(O)c(O)c(O)c1 [AL-088, N,N′-(dodecane-1,12-diyl)bis(3,4,5-trihydroxybenzamide)] | reduction in dhCerC6NBD conversion |
| O=C(NCCCCCCCCCCCCNC(=O)c1ccc(O)c(O)c1O)c1ccc(O)c(O)c1O [AL-274] | reduction in dhCerC6NBD conversion |
